Test results published in ChEMBL document CHEMBL4888484, “Replenishing the malaria drug discovery pipeline: Screening and hit evaluation of the MMV Hit Generation Library 1 (HGL1) against asexual blood stage Plasmodium falciparum ,using a nano luciferase reporter read-out” (2022).
The campaign covered roughly 150,000 compounds. About 540 (0.36%) showed an effect of 50% or more. Some of the results follow.

test system: Plasmodium falciparum; assay: Primary screen in NF54 nanoGlo assay, in single point, at 2uM, 72h; a lower Z score goes with more inhibition; format: functional, Erythrocyte; settings: timepoint 72 hour

With `COc1ccc(C(=O)N2CCC3(CC2)[C@@H](OC)CN3c2ccc(C)cc2)cn1` as the molecule, how does the “% Inhibition” value read?
The value was -2%.

And the Z score?
Its Z score is 0.35.

With `Cc1[nH]c2nc(C(=O)N3CCC(C)CC3)nn2c(=O)c1Cc1ccccc1` as the molecule, how does the “% Inhibition” value read?
The value was -16%.

What about the Z score of the same molecule?
The Z score was 1.84.

Which “% Inhibition” value does the source give for `COc1ccc(-c2nn(-c3ccccc3)cc2CC(=O)N2CC[C@H](N)C2)cc1` here?
Its value is 35%.

And the Z score?
The Z score was -3.52.

How did the “% Inhibition” value turn out when `C#Cc1cccc(NC(=O)N[C@@H](C)CO)c1` was run?
The value was 4%.

What about the Z score of the same molecule?
The Z score was -0.37.

How did the “% Inhibition” value turn out when `CCCN1CC2(CCN(Cc3ccc(C)cc3F)CC2)C[C@H]1C(=O)O` was run?
The value was -8%.

And the Z score?
Its Z score is 0.91.

Which “% Inhibition” value does the source give for `CCc1ccsc1C(=O)N(CCOC)[C@@H](C)C(N)=O` here?
The value was -2%.

What about the Z score of the same molecule?
The Z score was 0.28.

For `CC(O)CN(C)c1cc(N(C)CC(C)O)nc(-c2ccccc2)n1` (stereo unspecified), which “% Inhibition” value is on record?
The value was -13%.

What about the Z score of the same molecule?
The Z score was 1.24.

What does the source list for `Cc1ccc(NC(=O)Cn2c(N3CCN(c4ccccc4)CC3)nc(C)cc2=O)c(C)c1`?
% Inhibition: -26%; Z score: 2.33

`Cc1ccc(C)c(N2CCN(CCCNC(=O)C3CCN(c4ccc5nnc(C)n5n4)CC3)CC2)c1` was tested. Which “% Inhibition” value did it give?
Its value is 15%.

And the Z score?
Its Z score is -2.21.

With `COc1ccccc1CCNC(=O)c1nc(-c2cnccn2)no1` as the molecule, how does the “% Inhibition” value read?
Its value is -12%.

What about the Z score of the same molecule?
The Z score was 1.73.

What does the source list for `CCCN(C(=O)Nc1cc(C)cc(F)c1)[C@H]1CCCC[C@@H]1O`?
% Inhibition: -13%; Z score: 1.18

How did the “% Inhibition” value turn out when `CCc1n[nH]cc1C(=O)N[C@H]1CCOC[C@@H]1OCc1c(C)noc1C` was run?
The value was -11%.

What about the Z score of the same molecule?
The Z score was 1.74.

With `CCCn1nc(C(=O)O)c2c1CC[C@H](N(C)CCN(C)C)C2` as the molecule, how does the “% Inhibition” value read?
Its value is -8%.

And the Z score?
The Z score was 0.75.

What does the source list for `CCc1nc(N2CCC[C@H](COc3ccc(F)cc3)C2)no1`?
% Inhibition: -2%; Z score: 0.25

`O=C1C[C@H](N2CCc3sccc3C2)C(=O)N1CCc1ccccc1` was tested. Which “% Inhibition” value did it give?
The value was -3%.

What about the Z score of the same molecule?
The Z score was 0.45.

Which results are given for `Cc1cnc(C2CN(C(=O)Nc3ccccc3)C2)n1CC1CC1`?
% Inhibition: -13%; Z score: 1.65

Which “% Inhibition” value does the source give for `C#CC(C)(C)N(C)S(=O)(=O)c1ccc(OC)nc1` here?
The value was -6%.

And the Z score?
The Z score was 0.82.

How did the “% Inhibition” value turn out when `COc1ccc(COc2ccc(=O)n(-c3ccc(C(=O)N4CCCCCC4)cc3)n2)cc1` was run?
Its value is -22%.

And the Z score?
The Z score was 3.92.

With `COc1ccc(F)c(F)c1CN1CC[C@@]2(O)CCCC[C@H]2C1` as the molecule, how does the “% Inhibition” value read?
Its value is -7%.

And the Z score?
Its Z score is 1.05.

With `O=C(NCc1ccnc(OC2CCC2)c1)c1cc(F)c(O)c(F)c1` as the molecule, how does the “% Inhibition” value read?
Its value is -8%.

What about the Z score of the same molecule?
The Z score was 0.74.

Which “% Inhibition” value does the source give for `O=C(Cn1nccn1)Nc1cc(-c2ccccc2Br)n[nH]1` here?
The value was -2%.

And the Z score?
The Z score was 0.27.

Which results are given for `C[C@@H](CC(=O)N1CC(N2CCNC2=O)C1)C(=O)c1ccccc1`?
% Inhibition: -2%; Z score: 0.24

For `CC[C@@H](CO)N1CCN(CC2(CCOC)CCCCC2)CC1`, which “% Inhibition” value is on record?
Its value is -1%.

And the Z score?
The Z score was 0.11.
